Sequences with one replicate were seen in a single cluster, so their values are uncertain.
System: ATP
Assay: switch fluorescence ratio, 500 uM ATP over buffer (Cy3 cluster intensity, sum of 5 cycles each) (fold (ratio)); higher = stronger signal-on switching upon ATP binding; sequences stand for … in TCGTCGGCAGCGTCAGATGTGTATAAGAGACAGTTTTTTTTTTTTTTTTTTTTTTTTT…TC
Conditions: aptamer strand: ATP DNA aptamer (quencher-CACCTGGGGGAGTATTGCGGAGGAAGG + anchor), 100 nM annealed; ATP concentration: 500 uM; one replicate
Summary of the method: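 Five buffer/ATP imaging cycles were run on Cy3-labelled switching-strand clusters on a modified Illumina MiSeq flow-cell, with NaOH stripping and re-annealing between cycles. In each cycle, clusters annealed to 100 nM quencher-labelled ATP aptamer were imaged in selection buffer, then after 15 min with 500 uM ATP at 22 °C. Per cluster, the fluorescence ratio is summed target-cycle over summed buffer-cycle Cy3 intensity, averaged per switch-domain sequence. Only clusters within 100-1000 RFU were kept.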
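Note: ATP exposure 15 min at 22 °C before imaging.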

Sequence	switch fluorescence ratio
GGGGCCGCCG	0.997
GCTTTTAACA	0.982
ATACTATTGC	1.06
GATTCCGGAT	0.99
ACCGCAGTCT	1.18
CTTCTGAAGC	1.96
TATCTACATA	1.08
CCCGTAGCCA	2.23
TATTTCGCAT	1.38
TTTGGTCTCG	0.996
CCAGTTGCTT	1.05
AAGGGCGATC	1.02
ACGTTGCAGT	0.962
CTGTGTTCG	0.977
CAGAGTTCCG	0.904
CATGGGTTGA	1.08
ACTCCGGGGG	1.22
ATATATTAAC	0.987
GCCAACGAGC	1.07
ACGAAAACTT	1.07
CTGCTATGAA	1.03
TAAGTACGAT	1.28
GTTCCAACAC	1.01
ATAGGTTGGC	0.966
TAGCTGTAGA	1.03
TTAGTCGCTA	0.998

Sequence	switch fluorescence ratio
ATGGACAATT	0.963
TTCACGAACG	1.36
GGACCGTCGA	1.05
ATTCCCTTAC	1.53
GGGAACCGC	1.07
ACTTCATGAG	1.05
TACGCGGGGA	1.03
AAGGATGGC	1.02
AATGTTTCTC	1
TTTCGTCTAA	0.965
GGGTGGTTAT	0.984
AACATAATTT	0.968
GAAGTAAGTT	0.997
GTCAGACGGG	0.943
TTTGTGGTGA	0.961
TGATAGAATG	0.925
TGCAGCTTTA	1.08
TAGCTTAGTG	1.01
ATTAGCAAGC	2.24
TTCCGAGGAG	1.04
GACGTTGGTG	1.02
AATAATGCA	0.998
ATAAACGAGG	0.975
CATGGA	0.987
TCGTTATTTC	1.04
AGTCCGATAT	1.01

Sequence	switch fluorescence ratio
GCTGAAGGCA	1.06
GAAAGCAAGT	1.33
CCGGTGAGCT	1.12
AGATTGTGGG	1.02
CACGGGCGCT	1.03
ATCGAACCGA	1.05
TGAAGGCGT	1
GCCGCCGCT	1.17
TTCGCCGCCC	2.49
AGCTTATAG	1.06
AGCGAGTCTA	1.02
AGTGATCATC	0.966
AAGCTGAAGG	1.06
GTTGCCTGAA	1
TGATTTCGAG	0.955
CTAGTCTTGG	1.02
CTTGAACAG	1.02
GCTTCGGTTA	1.03
GGACGGATGG	0.98
GTTAATGTGT	0.982
TCGGGACTGG	1.07
TCTCTTTGAG	1.03
TAAGTACCTC	1.27
CCCGCAGATT	2.48
TTTCGTGGGC	1.35
ACGAGTCGTG	1.03

Sequence	switch fluorescence ratio
GGGATTACGA	1.01
CAATCTTGAG	0.967
TTATAACTC	1.01
GGCGATTTAC	1.05
AGCATTTTAA	1.02
GACCAGGTTT	1.12
GCTCTGCACG	1.47
CTCGCGGGAT	0.984
CACTATTAT	1.03
TCCACAGACT	1.26
AAATCCAATC	1.04
TAAAAGCCGA	0.923
TGTTTCCGCG	1.49
ATATGGGTGC	1.01
AAGGCCACCA	1.23
TTATTTTT	1
GAAACGGTCT	0.987
GCGGAGTGGA	1.02
GAACCACGAG	1.07
CAATGTGCG	1.01
ACGAGTGGCT	0.967
TAGCCGACG	1.06
TTATGCGGCA	1.05
TCAGGGTAC	1.06
ACGCTGGGTG	1.16
TATAGTAGT	0.99

Sequence	switch fluorescence ratio
TATGATTGGT	1.01
GGCTACAAGG	0.996
CCTGCCAGGT	1.51
TGGGGCCGAA	1
TGTAGATGG	0.979
CTTTATCATC	0.99
CGGAAGGAAC	0.995
TTAAATTGAG	1.01
GACACAACTG	0.886
CGCCACGGAT	0.979
TCACCCGGTC	1.19
GGCTGGTGTA	0.982
TGGGCATAGG	1.03
TCGATACATC	1.06
CTGTCGTCGT	1.02
AAAAGCCCTA	0.959
CCAAAACAAA	0.957
AATATGGGCA	1.03
GAGCTACAGG	1.01
CATCGTATGT	0.961
CGCGTTCGG	1.03
TATTGCAA	0.993
TACTGTAGTG	0.996
ACCACGTACG	1.68
TTATTTGCCA	1.02
CACACAAACC	1.14

Sequence	switch fluorescence ratio
GATTGCGTTC	0.967
AAACGTCTAC	1.2
CGGAAAGTAC	1.38
GCAAGTTTGA	1.03
AGTCTCGGGA	0.936
AGCGTAAGGG	1.04
GGAGGTCGCA	1.02
GTCGTGATTG	0.988
GATGGGTCAA	0.964
AGTTCAGTG	1.01
GTGCACCGAC	1.13
TATCTTATGC	0.996
ACACTTTCCG	1.11
GTCACTACTT	1.02
TGCATACATA	1
GGATCTTGTT	0.962
ATCGGGGTTT	1.02
AGTTTGGC	0.952
ATCCGAGCCT	1.16
ACATGTCA	1.03
CGAGCATGGT	1.19
TTCGTGCCTT	1.05
CAACTTGTGG	0.989
CGGGCTAAAG	0.981
